# Among all 2,000 compounds or so, about 110 (5.5%) showed an effect of 50% or more. The list shows a part of the results.
# Target: Genome polyprotein (dengue virus type 2) (UniProt P29990)
# [1] = Thailand/16681/1984, Concentration 25.0 uM, Number of replicates 1.0
smiles,measurement,setting,value
Cc1cc(CO)c2cccc(NC(=O)c3ccc(N)nn3)c2n1,inhibition,"Thailand/16681/1984, Concentration 49.95 uM, Number of replicates 2.0, Standard deviation 1.176901179972867 %",11%
same,inhibition,"Thailand/16681/1984, Concentration 99.9 uM, Number of replicates 2.0, Standard deviation 1.886285239678155 %",19.5%
COc1cc(F)ccc1CNC(=O)C1CCN(c2ccc(C=O)cc2)CC1,inhibition,[1],5.8%
Cc1c(C(=O)N[C@@H](c2c[nH]nn2)C(C)C)ccc(O)c1NC(=O)c1ccncc1F,inhibition,"Thailand/16681/1984, Concentration 49.5 uM, Number of replicates 2.0, Standard deviation 0.10939610711378549 %",-2%
same,inhibition,"Thailand/16681/1984, Concentration 99.01 uM, Number of replicates 2.0, Standard deviation 1.03735768500033 %",-1.36%
same,inhibition,"Thailand/16681/1984, Concentration 198.0 uM, Number of replicates 2.0, Standard deviation 1.46514535247363 %",0.539%
CNC(=O)c1cc(Cl)ccc1NS(=O)(=O)Cc1cccc(C#N)c1,inhibition,"Thailand/16681/1984, Concentration 49.5 uM, Number of replicates 2.0, Standard deviation 0.29988051697956003 %",-0.543%
same,inhibition,"Thailand/16681/1984, Concentration 99.01 uM, Number of replicates 2.0, Standard deviation 0.3065657447232367 %",0.566%
same,inhibition,"Thailand/16681/1984, Concentration 198.0 uM, Number of replicates 2.0, Standard deviation 0.6274569925210838 %",1.62%
N[C@H]1C[C@H](CNC(=O)[C@@H](NC(=O)OCc2ccccc2)c2ccc(OCc3ccccc3)cc2)C1,inhibition,"Thailand/16681/1984, Concentration 49.5 uM, Number of replicates 2.0, Standard deviation 4.035148717327061 %",-7.81%
same,inhibition,"Thailand/16681/1984, Concentration 99.01 uM, Number of replicates 2.0, Standard deviation 3.6381547385610027 %",-5.23%
same,inhibition,"Thailand/16681/1984, Concentration 198.0 uM, Number of replicates 2.0, Standard deviation 2.7035240962471856 %",9.08%
Cc1ccc(C)n1CCN1CCN(C(=O)C2CCN(c3ccc(C=O)cc3)CC2)CC1,inhibition,[1],3.33%
CN(Cc1ccc(N2CCOCC2)cc1)C(=O)C1CCN(c2ccc(C=O)cc2)CC1,inhibition,[1],13.2%
CCS(=O)(=O)CCN(C)C(=O)C1CCN(c2ccc(C=O)cc2)CC1,inhibition,[1],14.2%
Cc1nn(Cc2ccc3[nH]cnc3c2)cc1C1CCNCC1,inhibition,"Thailand/16681/1984, Concentration 49.5 uM, Number of replicates 2.0, Standard deviation 2.2677819065404545 %",-0.121%
same,inhibition,"Thailand/16681/1984, Concentration 99.01 uM, Number of replicates 2.0, Standard deviation 1.8619846733790775 %",1.01%
same,inhibition,"Thailand/16681/1984, Concentration 198.0 uM, Number of replicates 2.0, Standard deviation 1.6361949864806369 %",1.87%
Cc1ccc(CNC(=O)C2CCN(C(=O)C3CCN(c4ccc(C=O)cc4)CC3)CC2)cc1,inhibition,[1],13.7%
Cc1cc(CO)c2cccc(Cc3cccc(NC(=O)c4cc(C(=O)O)[nH]n4)c3)c2n1,inhibition,"Thailand/16681/1984, Concentration 49.95 uM, Number of replicates 2.0, Standard deviation 0.024232414845035546 %",4.13%
same,inhibition,"Thailand/16681/1984, Concentration 99.9 uM, Number of replicates 2.0, Standard deviation 0.7422093740247248 %",7.91%
O=Cc1ccc(N2CCC(C(=O)N3CCN(c4ncccn4)CC3)CC2)cc1,inhibition,[1],13.4%
CNC(=O)c1cc(Cl)ccc1NS(=O)(=O)c1ccc2[nH]cnc2c1,inhibition,"Thailand/16681/1984, Concentration 49.5 uM, Number of replicates 2.0, Standard deviation 1.319101949450319 %",-7.17%
same,inhibition,"Thailand/16681/1984, Concentration 99.01 uM, Number of replicates 2.0, Standard deviation 1.2211230021296493 %",-9.33%
O=C(c1nc2ccccc2[nH]1)N1CC[C@H](n2cc3ccccc3n2)C1,inhibition,"Thailand/16681/1984, Concentration 49.5 uM, Number of replicates 2.0, Standard deviation 1.0025848069580536 %",1.32%
same,inhibition,"Thailand/16681/1984, Concentration 99.01 uM, Number of replicates 2.0, Standard deviation 0.026013034900923795 %",2.88%
same,inhibition,"Thailand/16681/1984, Concentration 198.0 uM, Number of replicates 2.0, Standard deviation 0.26283988560630633 %",8.61%
O=Cc1ccc(N2CCC(C(=O)NCc3cc(F)ccc3Br)CC2)cc1,inhibition,[1],2.51%
CC(=O)N[C@@H](CCCN)C(=O)Nc1cccc(Cc2cccc3c(CO)cc(C)nc23)c1,inhibition,"Thailand/16681/1984, Concentration 49.95 uM, Number of replicates 2.0, Standard deviation 0.3697200155248097 %",-0.745%
same,inhibition,"Thailand/16681/1984, Concentration 99.9 uM, Number of replicates 2.0, Standard deviation 1.751669554233512 %",10.8%
Cc1cc(CO)c2cccc(CC(=O)NCc3ccc(S(N)(=O)=O)cc3)c2n1,inhibition,"Thailand/16681/1984, Concentration 49.95 uM, Number of replicates 2.0, Standard deviation 1.717051818740604 %",21.3%
same,inhibition,"Thailand/16681/1984, Concentration 99.9 uM, Number of replicates 2.0, Standard deviation 5.294472274247832 %",43.7%
O=Cc1ccc(N2CCC(C(=O)N(Cc3ccccc3)Cc3ccc(Br)cc3)CC2)cc1,inhibition,[1],-1.05%
O=Cc1ccc(N2CCC(C(=O)NC[C@H]3CCCN(C4CCCC4)C3)CC2)cc1,inhibition,[1],12%
Cc1cccc(N2CCN(C(=O)C3CCN(c4ccc(C=O)cc4)CC3)C[C@@H]2C)c1,inhibition,[1],13.4%
Cc1cc(OCC(N)=O)c2cccc(C)c2n1,inhibition,"Thailand/16681/1984, Concentration 49.95 uM, Number of replicates 2.0, Standard deviation 5.13228985247876 %",-8.4%
same,inhibition,"Thailand/16681/1984, Concentration 99.9 uM, Number of replicates 2.0, Standard deviation 3.138272547559726 %",-9.88%
COc1c(C)cnc(CN(C)C(=O)C2CCN(c3ccc(C=O)cc3)CC2)c1C,inhibition,[1],14.2%
CC[C@]1(c2ccc(NC(=O)C3CCN(c4ccc(C=O)cc4)CC3)cc2)CCC(=O)NC1=O,inhibition,[1],14.1%
O=C(Nc1ccc(Cl)c2cccnc12)c1ccccc1Cl,inhibition,"Thailand/16681/1984, Concentration 49.95 uM, Number of replicates 2.0, Standard deviation 4.586896145756268 %",-8.93%
same,inhibition,"Thailand/16681/1984, Concentration 99.9 uM, Number of replicates 2.0, Standard deviation 5.569920136705082 %",-8.91%
Cc1nc([C@H]2CCN(C(=O)c3n[nH]cc3[C@H]3CCCNC3)C2)n[nH]1,inhibition,"Thailand/16681/1984, Concentration 49.5 uM, Number of replicates 2.0, Standard deviation 1.1890927459605223 %",-3.25%
same,inhibition,"Thailand/16681/1984, Concentration 99.01 uM, Number of replicates 2.0, Standard deviation 0.25960688515073266 %",-2.2%
same,inhibition,"Thailand/16681/1984, Concentration 198.0 uM, Number of replicates 2.0, Standard deviation 5.490687180371391 %",2.11%
CC(C)(O)CC(=O)Nc1cc(Cl)cc(C(=O)NC(C)(C)CO)c1,inhibition,"Thailand/16681/1984, Concentration 49.5 uM, Number of replicates 2.0, Standard deviation 2.1574883244344782 %",0.623%
same,inhibition,"Thailand/16681/1984, Concentration 99.01 uM, Number of replicates 2.0, Standard deviation 2.49929441897025 %",1.02%
same,inhibition,"Thailand/16681/1984, Concentration 198.0 uM, Number of replicates 2.0, Standard deviation 1.6486810114254136 %",0.898%
O=Cc1ccc(N2CCC(C(=O)NCC(=O)Nc3ccc(F)c(F)c3)CC2)cc1,inhibition,[1],14.1%
O=Cc1ccc(N2CCC(C(=O)Nc3cc(Br)ccc3F)CC2)cc1,inhibition,[1],12.3%
O=Cc1ccc(N2CCC(C(=O)NCC3(c4ccccc4)CCCC3)CC2)cc1,inhibition,[1],0.504%
Cc1nc(-c2ccc(C)c3ncccc23)c[nH]1,inhibition,"Thailand/16681/1984, Concentration 49.95 uM, Number of replicates 2.0, Standard deviation 5.0327534948119155 %",-7.66%
same,inhibition,"Thailand/16681/1984, Concentration 99.9 uM, Number of replicates 2.0, Standard deviation 5.690844839879446 %",-5.4%
O=Cc1ccc(N2CCC(C(=O)N[C@@H]3[C@@H](O)[C@H](O)[C@@H](CO)O[C@H]3O)CC2)cc1,inhibition,[1],10.8%
CC(C)n1c(CNC(=O)C2CCN(c3ccc(C=O)cc3)CC2)nc2ccccc21,inhibition,[1],12.4%
c1ccc2c([C@H]3CCCN(Cc4n[nH]c5ccccc45)C3)c[nH]c2c1,inhibition,"Thailand/16681/1984, Concentration 49.5 uM, Number of replicates 2.0, Standard deviation 2.5740974464975066 %",2.7%
same,inhibition,"Thailand/16681/1984, Concentration 99.01 uM, Number of replicates 2.0, Standard deviation 2.264671553414048 %",5.31%
same,inhibition,"Thailand/16681/1984, Concentration 198.0 uM, Number of replicates 2.0, Standard deviation 2.757654979663667 %",4.66%
Cc1cc(CO)c2cccc(NC(=O)Cc3c[nH]c4ccccc34)c2n1,inhibition,"Thailand/16681/1984, Concentration 49.95 uM, Number of replicates 2.0, Standard deviation 1.6396894238375237 %",1.91%
same,inhibition,"Thailand/16681/1984, Concentration 99.9 uM, Number of replicates 2.0, Standard deviation 1.2235176174746443 %",8.36%
O=Cc1ccc(N2CCC(C(=O)N3CCC4(CC3)CNC(=O)C4)CC2)cc1,inhibition,[1],13.5%
CC(C)(C)c1ccc(CNC(=O)C2CCN(c3ccc(C=O)cc3)CC2)cc1,inhibition,[1],8.12%
COc1c(Cl)cccc1NC(=O)C1CCN(c2ccc(C=O)cc2)CC1,inhibition,[1],13.9%
c1ccc(-c2coc(CNCc3nnc4ccccn34)c2)cc1,inhibition,"Thailand/16681/1984, Concentration 49.5 uM, Number of replicates 2.0, Standard deviation 0.7295248163500376 %",-1.01%
same,inhibition,"Thailand/16681/1984, Concentration 99.01 uM, Number of replicates 2.0, Standard deviation 0.9556922865251056 %",-0.811%
same,inhibition,"Thailand/16681/1984, Concentration 198.0 uM, Number of replicates 2.0, Standard deviation 2.56780972675556 %",0.277%
Cc1nnccc1Cn1cc(C2CCNCC2)c(C)n1,inhibition,"Thailand/16681/1984, Concentration 49.5 uM, Number of replicates 2.0, Standard deviation 1.059758229221688 %",-5.29%
same,inhibition,"Thailand/16681/1984, Concentration 99.01 uM, Number of replicates 2.0, Standard deviation 7.779121042682183 %",2.01%
same,inhibition,"Thailand/16681/1984, Concentration 198.0 uM, Number of replicates 2.0, Standard deviation 1.1444678313445817 %",-3.21%
O=C(NCc1ccc(-c2ncc[nH]2)cc1)[C@@]1(c2ccc(F)cc2)CCCNC1,inhibition,"Thailand/16681/1984, Concentration 49.5 uM, Number of replicates 2.0, Standard deviation 0.5643965406042961 %",-2.16%
same,inhibition,"Thailand/16681/1984, Concentration 99.01 uM, Number of replicates 2.0, Standard deviation 0.22314615226614037 %",-1.83%
same,inhibition,"Thailand/16681/1984, Concentration 198.0 uM, Number of replicates 2.0, Standard deviation 1.098858966940018 %",-1.02%
CCN1CCN(c2ccc(NC(=O)C3CCN(c4ccc(C=O)cc4)CC3)cc2)CC1,inhibition,[1],13.5%
Cc1cnccc1NC(=O)c1ccc2c(c1)COCC2,inhibition,"Thailand/16681/1984, Concentration 49.5 uM, Number of replicates 2.0, Standard deviation 2.5121871293930202 %",-1.99%
same,inhibition,"Thailand/16681/1984, Concentration 99.01 uM, Number of replicates 2.0, Standard deviation 1.8322256055090813 %",-1.68%
same,inhibition,"Thailand/16681/1984, Concentration 198.0 uM, Number of replicates 2.0, Standard deviation 3.8354075529759903 %",-1.51%
CCn1ccnc(N2CCC(c3c[nH]c4ccccc34)CC2)c1=O,inhibition,"Thailand/16681/1984, Concentration 49.5 uM, Number of replicates 2.0, Standard deviation 1.413984957866772 %",10.9%
same,inhibition,"Thailand/16681/1984, Concentration 99.01 uM, Number of replicates 2.0, Standard deviation 1.00361289503378 %",19.7%
same,inhibition,"Thailand/16681/1984, Concentration 198.0 uM, Number of replicates 2.0, Standard deviation 0.25199229832396647 %",25.7%
O=Cc1ccc(N2CCC(C(=O)N3CC4C[C@H]5CC3C[C@H](C4)C5)CC2)cc1,inhibition,[1],14.5%
Cn1nc(CN2CCC(c3c[nH]c4cccnc34)CC2)c2cccnc21,inhibition,"Thailand/16681/1984, Concentration 49.5 uM, Number of replicates 2.0, Standard deviation 4.251865662880804 %",-3.89%
same,inhibition,"Thailand/16681/1984, Concentration 99.01 uM, Number of replicates 2.0, Standard deviation 2.598042672716789 %",-4.7%
same,inhibition,"Thailand/16681/1984, Concentration 198.0 uM, Number of replicates 2.0, Standard deviation 3.0838970438344875 %",-4.39%
O=Cc1ccc(N2CCC(C(=O)Nc3cc(Cl)c(F)c(Cl)c3)CC2)cc1,inhibition,[1],13.1%
O=Cc1ccc(N2CCC(C(=O)N3CCC(N4CCOCC4)CC3)CC2)cc1,inhibition,[1],12.6%
